According to US12484574B2, “Agent for promoting undifferentiation and cryoprotective agent using aprotic zwitterion” (JAPAN SCIENCE AND TECHNOLOGY AGENCY, priority 2019, dated 2025):
At least one read-out could not be matched to a standard name with certainty.

Tests used:
[1] = tested on: Human renal cell; experiment: Cell freezing experiment 4 (slow freezing), viable cell count as ratio to OE2imC3C; assay type: cell-based; details: −80° C., −1° C./min
Method: (§1) As for the cryopreservation solution, the aprotic zwitterion of each example was dissolved by the addition of purified water to prepare test solutions containing 5% by weight and 10% by weight of the aprotic zwitterion.
(§2) The cells to be frozen were centrifugally recovered by trypsin treatment and diluted with Dulbecco's modified Eagle medium (DMEM), and each cell concentration was measured. The types and cell concentrations of the cells are as follows. • Mouse skin fibroblasts 5.0×10^5 cells/100 μl • Human renal fat cells 5.0×10^5 cells/100 μl
(§3) Subsequently, the cells of each type were dispensed at 1 ml/tube to 1.5 ml tubes, centrifuged, suspended in 100 μl each of the cryopreservation solutions described above, and frozen at a cooling temperature of −80° C. at a cooling rate of −1° C./min using a cell freezing container Mr. Frosty®.
(§4) 1 ml of a medium was added to the cryopreservation vial for thawing, and a supernatant was removed by centrifugation. Subsequently, the cells obtained by centrifugation were resuspended in a medium, followed by the measurement of a viable cell count. The results are indicated by a ratio to the viable cell count of OE2imC3C.

[2] = tested on: Mouse skin fibroblast; experiment: as above; assay type: cell-based; details: −80° C., −1° C./min
Method: as §1, §2, §3, §4

Structure (SMILES)	viable cell count, ratio to the viable cell count of OE2imC3C ([1]; 5 wt % in purified water)	viable cell count, ratio to the viable cell count of OE2imC3C ([1]; 10 wt % in purified water)	viable cell count, ratio to the viable cell count of OE2imC3C ([2]; 5 wt % in purified water)	viable cell count, ratio to the viable cell count of OE2imC3C ([2]; 10 wt % in purified water)
C=CCn1cc[n+](CCCC(=O)[O-])c1 [AimC3C]	1.12	0.80	0.31	0.36
C=CCn1cc[n+](CCCS(=O)(=O)[O-])c1 [AimC3S]	2.76	1.08	0.45	0.69
C=CCn1cc[n+](CCCCS(=O)(=O)[O-])c1 [AimC4S]	2.06	1.28	0.55	0.53
Cn1cc[n+](CCCC(=O)[O-])c1 [Example C1imC3C]	1.29	0.20	1.16	1.08
Cn1cc[n+](CCCS(=O)(=O)[O-])c1 [Example C1imC3S]	0.71	0.26	0.74	0.72
CCCCn1cc[n+](CCCC(=O)[O-])c1 [Example C4imC3C]	0.45	0.20	0.31	0.56
CCCCn1cc[n+](CCCCCC(=O)[O-])c1 [Example C4imC5C]	0.57	0.17	0.24	0.30
CCCCCCCCn1cc[n+](CCCC(=O)[O-])c1 [Example C8imC3C]	0.03	0.06	0.04	0.05
CCCCCCCCn1cc[n+](CCCCS(=O)(=O)[O-])c1 [Example C8imC4S]		0.33		0.04
COCCn1cc[n+](CCCC(=O)[O-])c1 [OE1imC3C]	0.29	0.33	0.71	0.53
COCCOCCn1cc[n+](CCCC(=O)[O-])c1 [OE2imC3C]	1.00	1.00	1.00	1.00
COCCOCCn1cc[n+](CCCS(=O)(=O)[O-])c1 [OE2imC3S]	0.28	0.22	0.16	0.23
COCCOCCn1cc[n+](CCCCCC(=O)[O-])c1 [OE2imC5C]	0.44	0.32	0.82	0.95
O=C([O-])CCC[n+]1ccccc1 [PyC3C]	1.76	1.32	0.77	0.98
C[N+]1(CCCC(=O)[O-])CCCC1 [PyrrC3C]	0.46	0.35	0.63	0.58
C=Cn1cc[n+](CCCC(=O)[O-])c1 [VimC3C]	1.29	0.92	0.48	0.83
C=Cn1cc[n+](CCCS(=O)(=O)[O-])c1 [VimC3S]	2.94	1.08	0.66	1.02
C=Cn1cc[n+](CCCCS(=O)(=O)[O-])c1 [VimC4S]	2.71	1.40	0.63	1.03
